Our source for the binding signal values is paper PMC5700166.

What all share (test): protein-binding microarray (PBM)
Holding throughout (conditions): PBM: ~300 nM protein, 6 mM HEPES pH 7.8, 80 mM KCl, 0.5 mM EDTA, 0.5 mM EGTA, 6% glycerol, 35 ng/ul poly-dIdC, 1% milk, 1 h, room temperature; Ap Aiptasia and Nv Nematostella (sea anemones) / Co Capsaspora / Aq Amphimedon (sponge) / Dm Drosophila / Hu human; RHD is the Rel homology domain; high values mean tight binding; most listed sequences are background and not binding sites; double strand, one strand shown

Assay [1] concerns the target T1, GST-Ap-NF-kB RHD (UniProt A0A913YAJ5).
T1 sequence: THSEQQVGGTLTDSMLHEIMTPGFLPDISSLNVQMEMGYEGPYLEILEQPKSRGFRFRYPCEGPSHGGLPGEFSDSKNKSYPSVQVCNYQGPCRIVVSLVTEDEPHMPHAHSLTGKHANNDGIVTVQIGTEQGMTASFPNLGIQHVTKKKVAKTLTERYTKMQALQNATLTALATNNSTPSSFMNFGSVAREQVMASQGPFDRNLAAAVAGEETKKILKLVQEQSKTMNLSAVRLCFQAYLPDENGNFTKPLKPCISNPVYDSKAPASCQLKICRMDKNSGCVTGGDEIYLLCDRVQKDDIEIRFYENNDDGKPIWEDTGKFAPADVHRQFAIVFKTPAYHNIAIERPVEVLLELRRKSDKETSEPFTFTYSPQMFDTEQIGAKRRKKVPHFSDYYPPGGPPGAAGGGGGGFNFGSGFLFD

Assay [2] deals with T2, GST-Nv-NF-kB (Cys allele) (UniProt E5G601).
T2 sequence: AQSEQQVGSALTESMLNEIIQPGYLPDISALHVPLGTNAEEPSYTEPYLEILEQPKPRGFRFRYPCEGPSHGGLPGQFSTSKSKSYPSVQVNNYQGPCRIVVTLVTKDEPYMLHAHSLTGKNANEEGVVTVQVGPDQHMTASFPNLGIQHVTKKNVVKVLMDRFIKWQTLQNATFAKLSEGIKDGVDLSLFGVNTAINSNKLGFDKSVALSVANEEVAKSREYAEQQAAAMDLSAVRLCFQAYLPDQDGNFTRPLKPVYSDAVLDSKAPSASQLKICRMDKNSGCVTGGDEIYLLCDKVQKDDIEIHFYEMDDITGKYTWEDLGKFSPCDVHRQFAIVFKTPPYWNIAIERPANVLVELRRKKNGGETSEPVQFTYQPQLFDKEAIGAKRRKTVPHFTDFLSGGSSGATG

In assay [3] the target is T3, GST-Co-NF-kB (UniProt F1ARL5).
T3 sequence: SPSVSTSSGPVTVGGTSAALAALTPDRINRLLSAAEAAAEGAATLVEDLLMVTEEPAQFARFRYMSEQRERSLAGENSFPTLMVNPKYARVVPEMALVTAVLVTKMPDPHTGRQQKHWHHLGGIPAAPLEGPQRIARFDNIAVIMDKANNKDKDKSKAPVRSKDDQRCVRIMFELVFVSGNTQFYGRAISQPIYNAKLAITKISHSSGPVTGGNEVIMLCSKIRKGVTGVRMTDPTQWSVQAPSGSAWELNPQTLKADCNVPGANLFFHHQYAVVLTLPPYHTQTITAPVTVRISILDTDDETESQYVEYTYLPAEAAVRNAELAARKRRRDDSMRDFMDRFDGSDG

The target of assay [4] is T4, GST-Aq-NF-kB (UniProt A9Y5G7).
T4 sequence: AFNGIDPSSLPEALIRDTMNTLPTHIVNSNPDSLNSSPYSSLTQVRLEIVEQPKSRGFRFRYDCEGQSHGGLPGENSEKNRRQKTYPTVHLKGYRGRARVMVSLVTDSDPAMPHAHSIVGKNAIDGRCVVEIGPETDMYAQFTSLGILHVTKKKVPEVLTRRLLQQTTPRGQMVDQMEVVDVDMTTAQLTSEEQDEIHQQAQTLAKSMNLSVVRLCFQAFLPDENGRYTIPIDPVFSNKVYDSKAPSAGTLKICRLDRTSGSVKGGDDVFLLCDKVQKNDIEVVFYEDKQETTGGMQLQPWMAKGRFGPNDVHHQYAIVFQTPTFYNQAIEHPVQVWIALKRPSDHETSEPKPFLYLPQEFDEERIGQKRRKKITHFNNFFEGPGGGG

Only a part is listed here, and it is no random draw. The list includes weakly bound sequences.

For “CCGATTAACATCACCGAATTTGGTGATGTTAATCGGGTCTTGATTCGCTTGACGCTGCTG”, the binding signal in assay [1] was -0.291 z-score; in assay [2], 0.447 z-score; in assay [3], -0.278 z-score; in assay [4] it was 0.204 z-score.
As for “CCGATTAACATCAGGATTTCCCCTGATGTTAATCGGGTCTTGATTCGCTTGACGCTGCTG”, the binding signal in assay [1] stood at 10 z-score; in assay [2] it was 11.1 z-score; in assay [4], 9.68 z-score.
For the sequence “CCGATTAACATCAGGATGTTCCCTGATGTTAATCGGGTCTTGATTCGCTTGACGCTGCTG”, the results for the binding signal in assay [1], in assay [2] and in assay [4] were 2.3 z-score, 1.77 z-score and 4.33 z-score, respectively.
For “CCGATTAACATCAGGAAAGGCCATGATGTTAATCGGGTCTTGATTCGCTTGACGCTGCTG”, the binding signal in assay [1] was -0.18 z-score; in assay [2] it was -0.23 z-score; in assay [3], -1.04 z-score; in assay [4] it was 1.31 z-score.
“CCGATTAACATCAGGGGGGCACCTGATGTTAATCGGGTCTTGATTCGCTTGACGCTGCTG”: the binding signal in assay [1] was found to be 4.84 z-score; in assay [2], 3.13 z-score; in assay [4], 4.5 z-score.
Turning to “CCGATTAACATCAGGATTTACCATGATGTTAATCGGGTCTTGATTCGCTTGACGCTGCTG”, the binding signal was 0.481 z-score in assay [1], 0.462 z-score in assay [2], 0.0234 z-score in assay [3] and 1.48 z-score in assay [4].
Regarding “CCGATTAACATCAGGGGGAGTCATGATGTTAATCGGGTCTTGATTCGCTTGACGCTGCTG”, the binding signal in assay [1] came to 5.67 z-score; in assay [2] it was 4.38 z-score; in assay [4] it was 4.55 z-score.
Regarding “CCGATTAACATCACGGGAGTTCCTGATGTTAATCGGGTCTTGATTCGCTTGACGCTGCTG”, the binding signal in assay [1] came out at 3.99 z-score; in assay [2], 3.71 z-score; in assay [3], 1.77 z-score; in assay [4], 5.04 z-score.
As for “CCGATTAACATCAAAAATACCCTTGATGTTAATCGGGTCTTGATTCGCTTGACGCTGCTG”, the binding signal in assay [1] worked out at 5.7 z-score; in assay [2], 9.05 z-score; in assay [4], 7.5 z-score.
“CCGATTAACATCAGGGGGACTAATGATGTTAATCGGGTCTTGATTCGCTTGACGCTGCTG”: the binding signal came out at 5.06 z-score in assay [1], 4.36 z-score in assay [2] and 4.27 z-score in assay [4].
As for “CCGATTAACATCATGTGGTTCTCTGATGTTAATCGGGTCTTGATTCGCTTGACGCTGCTG”, the binding signal in assay [1] is -0.288 z-score; in assay [2] it was -0.27 z-score; in assay [3], 0.00892 z-score; in assay [4], -0.38 z-score.
Turning to “CCGATTAACATCAGGAAACTACATGATGTTAATCGGGTCTTGATTCGCTTGACGCTGCTG”, the binding signal in assay [1] is 0.0409 z-score; in assay [2], -0.844 z-score; in assay [3] it was 0.384 z-score; in assay [4] it was 0.544 z-score.
As for “CCGATTAACATCAGAGTTTCCCCTGATGTTAATCGGGTCTTGATTCGCTTGACGCTGCTG”, the figures for the binding signal in assay [1], in assay [2] and in assay [4] were 7.08 z-score, 8.35 z-score and 6.33 z-score, respectively.
For the sequence “CCGATTAACATCAGGAAACAACCTGATGTTAATCGGGTCTTGATTCGCTTGACGCTGCTG”, the binding signal in assay [1] was -0.181 z-score; in assay [2] it was 0.783 z-score; in assay [3], -0.239 z-score; in assay [4], 2.89 z-score.
With “CCGATTAACATCACGTAGTTTCCTGATGTTAATCGGGTCTTGATTCGCTTGACGCTGCTG”, the binding signal in assay [1] was 0.0811 z-score; in assay [2], -0.0679 z-score; in assay [3], 0.353 z-score; in assay [4] it was 0.759 z-score.
The matching figures for “CCGATTAACATCAAAATTTTCCTTGATGTTAATCGGGTCTTGATTCGCTTGACGCTGCTG”: 0.0111 z-score, 0.199 z-score, -0.228 z-score and 1.12 z-score.
As for “CCGATTAACATCAAAAAACCCCGTGATGTTAATCGGGTCTTGATTCGCTTGACGCTGCTG”, the values for the binding signal in assay [1], in assay [2] and in assay [4] were 7.4 z-score, 7.45 z-score and 7.03 z-score, respectively.
For “CCGATTAACATCAGGGGAGACCCTGATGTTAATCGGGTCTTGATTCGCTTGACGCTGCTG”, in that order: 6.47 z-score, 4.51 z-score and 6.37 z-score.
In the case of “CCGATTAACATCAAAGGAAATTCTGATGTTAATCGGGTCTTGATTCGCTTGACGCTGCTG”, the binding signal in assay [1] was -0.0472 z-score; in assay [2] it was 0.605 z-score; in assay [3] it was 0.387 z-score; in assay [4], 0.916 z-score.
As for “CCGATTAACATCAAGGGAGTCCCTGATGTTAATCGGGTCTTGATTCGCTTGACGCTGCTG”, the binding signal in assay [1] worked out at 5.78 z-score; in assay [2], 4.59 z-score; in assay [3] it was 1.18 z-score; in assay [4], 4.92 z-score.
For “CCGATTAACATCACGGGAATACCTGATGTTAATCGGGTCTTGATTCGCTTGACGCTGCTG”, the binding signal in assay [1] was determined as 4.13 z-score; in assay [2], 3.29 z-score; in assay [4] it was 5.81 z-score.
“CCGATTAACATCAGGGGAGGTAATGATGTTAATCGGGTCTTGATTCGCTTGACGCTGCTG”: the binding signal is 2.69 z-score in assay [1], 2.66 z-score in assay [2] and 2.71 z-score in assay [4].
For “CCGATTAACATCAATGGGAATTCTGATGTTAATCGGGTCTTGATTCGCTTGACGCTGCTG”, in that order: 2.8 z-score, 4.72 z-score and 3.51 z-score.
For “CCGATTAACATCAAAAAATTCCGTGATGTTAATCGGGTCTTGATTCGCTTGACGCTGCTG”, in that order: 0.142 z-score, 0.954 z-score and 2.61 z-score.
As to “CCGATTAACATCAAGGGATTTTCTGATGTTAATCGGGTCTTGATTCGCTTGACGCTGCTG”, the binding signal in assay [1] stood at 5.78 z-score; in assay [2], 6.63 z-score; in assay [4], 6.65 z-score.
Take “CCGATTAACATCAGAAATCCCCCTGATGTTAATCGGGTCTTGATTCGCTTGACGCTGCTG”: the results for the binding signal in assay [1], in assay [2] and in assay [4] were 11.2 z-score, 10.5 z-score and 8.32 z-score, respectively.
Turning to “CCGATTAACATCACGGGCAGTGGTGATGTTAATCGGGTCTTGATTCGCTTGACGCTGCTG”, the binding signal in assay [1] is 0.388 z-score; in assay [2], 0.122 z-score; in assay [3], 1.25 z-score; in assay [4] it was 0.037 z-score.
For the sequence “CCGATTAACATCACCATTATAGGTGATGTTAATCGGGTCTTGATTCGCTTGACGCTGCTG”, the binding signal is -0.449 z-score in assay [1], 0.378 z-score in assay [2], -0.378 z-score in assay [3] and 0.294 z-score in assay [4].
Take “CCGATTAACATCACGAAAAATCCTGATGTTAATCGGGTCTTGATTCGCTTGACGCTGCTG”: the binding signal was -0.319 z-score in assay [1], -0.537 z-score in assay [2], -0.623 z-score in assay [3] and 0.937 z-score in assay [4].
For the sequence “CCGATTAACATCACCGGAATTCCTGATGTTAATCGGGTCTTGATTCGCTTGACGCTGCTG”, the results for the binding signal in assay [1], in assay [2] and in assay [4] were 1.13 z-score, 0.705 z-score and 2.36 z-score, respectively.
For “CCGATTAACATCAGGGGAAAACCTGATGTTAATCGGGTCTTGATTCGCTTGACGCTGCTG”, in that order: 9.38 z-score, 10.6 z-score and 9.77 z-score.
As for “CCGATTAACATCAGAGCTCCCCCTGATGTTAATCGGGTCTTGATTCGCTTGACGCTGCTG”, the binding signal in assay [1] was determined as 5.05 z-score; in assay [2] it was 4.31 z-score; in assay [4], 3.98 z-score.
In the case of “CCGATTAACATCAGGAAATAACATGATGTTAATCGGGTCTTGATTCGCTTGACGCTGCTG”, the binding signal in assay [1] was -0.389 z-score; in assay [2], -0.237 z-score; in assay [3], 0.707 z-score; in assay [4], 0.601 z-score.
